Assay results published in PubChem BioAssay AID1346428 (National Center for Advancing Translational Sciences (NCATS), 2018).
Screen size: about 48,000 compounds; about 1,200 (2.5%) were called active. Roughly 2% stayed inconclusive and do not appear here.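 How the source made its calls: active means activation of at least 60% and not above a set upper limit (about 1 call in 100 departs from these limits); inconclusive means activation of 40% to 60%, or above that upper limit; inactive means activation under 40%.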 The list shows a part of the results.

These compounds were tested against Probable G-protein coupled receptor 32 (Homo sapiens) (UniProt O75388) (assay: qHTS for Agonists of Human Resolvin D1 Receptor DRV1). Settings: CHO-K1 GPR32 beta-arrestin PathHunter luminescence, 90 min; at 76.9 µM; hits give high values; zero percent set by DMSO-only wells.
Summary of the method: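 Using DMSO wells as EC0, agonist-induced signal was taken as chemiluminescence from beta-Gal reconstituted upon beta-arrestin recruitment to GPR32 in CHO-K1 cells after 90 min compound treatment.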
Further: 0% is about no effect.

Sequence of UniProt O75388 (O75388 whole entry, looked up): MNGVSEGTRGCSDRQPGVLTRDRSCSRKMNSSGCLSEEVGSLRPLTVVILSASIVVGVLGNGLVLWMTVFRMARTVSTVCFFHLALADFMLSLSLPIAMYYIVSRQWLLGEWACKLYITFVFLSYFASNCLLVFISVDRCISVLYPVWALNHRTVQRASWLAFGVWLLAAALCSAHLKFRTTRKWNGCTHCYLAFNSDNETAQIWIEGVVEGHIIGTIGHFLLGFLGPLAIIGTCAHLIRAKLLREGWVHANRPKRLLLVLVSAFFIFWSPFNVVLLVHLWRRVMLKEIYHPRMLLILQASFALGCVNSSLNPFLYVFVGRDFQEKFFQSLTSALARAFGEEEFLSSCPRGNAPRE

activation, inactive:
CCCCNC(=O)CN1C(=O)c2c(c3ccccc3n2C)C1c1ccc(OC)cc1 (stereo not given) -15.9%, CC(C)(C)C(=O)Nc1nc2nc(-c3ccccc3)cc(=O)n2[nH]1 -6.2%, C[C@]12C=CC(=O)C=C1CC[C@@H]1C2=CC[C@]2(C)[C@@H](C(=O)CN3CCN(c4cc(N5CCCC5)nc(N5CCCC5)n4)CC3)CC[C@@H]12 -31.1%, COc1ccc(Nc2nc(Nc3ccc(OC)cc3OC)nc(N3CCOCC3)n2)c(OC)c1 -27.4%, Cc1ccc2oc(-c3cccc(NC(=O)c4ccc(N5CCC(C)CC5)c([N+](=O)[O-])c4)c3)nc2c1 -10.1%, C=CCn1c(=O)n([C@@H]2O[C@H](CO)[C@@H](O)[C@H]2O)c2nc(N)[nH]c(=O)c21 27.9%, Cc1oc(-c2ccc(Cl)cc2)nc1CN1CCCC(C(=O)NCCc2ccccc2)C1 (stereo not given) 16.4%, CCc1cccc(C)c1NC(=O)c1cc(S(=O)(=O)N2CCC3(CC2)OCCO3)ccc1F 11.4%, COc1ccc(C2CC(=O)c3cc(-c4nc(-c5cccc([N+](=O)[O-])c5)cs4)c(=O)n(-c4ccc(F)cc4)c3C2)cc1 (stereo not given) 0.0821%, C[C@]12C=CC(=O)C=C1CC[C@@H]1[C@@H]2C(=O)C[C@@]2(C)[C@H]1CC[C@]2(O)C(=O)CO -18.8%, Cc1ccc(S(=O)(=O)N2CCCc3cc(NS(=O)(=O)c4ccc(C)c(C)c4)ccc32)cc1 -19.8%, CC(=O)c1ccc(NC(=O)CSc2c(C(C)C)cnc3c2c(=O)n(C)c(=O)n3C)cc1 -25%, COC(=O)c1ccn(-c2nc(-c3ccc(Cl)cc3)cc(C(F)(F)F)n2)n1 -6.5%, O=C(Cn1c(=O)n(Cc2ccc(C(=O)NCc3ccc4c(c3)OCO4)cc2)c(=O)c2ccccc21)Nc1ccc(F)cc1F -7.26%, COc1ccc(C2(N3CCN(c4cccc(C)c4C)CC3)C(=O)c3ccccc3C2=O)cc1 -9.51%, Cc1c(-c2nnc(SCC(=O)Nc3ccc(Br)cc3)o2)nnn1-c1ccc(F)cc1 19.5%, O=C(CS(=O)(=O)c1cccc2nsnc12)N1CCN(c2ccccc2)CC1 -4.72%, COc1ccc(-c2nc(C)c(CCNS(=O)(=O)c3ccc(F)cc3)s2)cc1OC 26.5%, Nc1ncnc2nc(-c3ccc(N4CCOCC4)nc3)cc(-c3cccc(Br)c3)c12 3.47%, CC(C)c1ccc(CN(Cc2ccco2)c2cnc(S(C)(=O)=O)nc2C(=O)Nc2ccccc2)cc1 -6.79%
